Reference: PubChem BioAssay AID1347165 (National Center for Advancing Translational Sciences (NCATS), 2019)
In all, about 220,000 compounds went through this assay and about 5,700 (2.6%) were called active. The shares of active, inactive and inconclusive entries below differ from those in the screen. Calls come from the whole dose curve; as a rule, active = well fitted inhibition curve with a large enough effect; inconclusive = small, poorly fitted or top-dose-only effect; inactive = no such curve, though single readings can be large or run the other way. A potency beside an inconclusive call is a rough fit, not a confirmed value.

target: Lysine-specific demethylase 5B (Homo sapiens) (UniProt Q9UGL1); assay: Primary screen for KDM5B Histone Demethylases FDH-coupled qHTS; details: FDH-coupled NADH fluorescence (FDH is formaldehyde dehydrogenase); activity change, negative = inhibition: at 57.7 µM (top of the series) unless noted; note: nearly all actives have a fitted effect of over 70% in size; for activity change, negative = inhibition: 0% is about no effect
Sequence of UniProt Q9UGL1 (Q9UGL1 whole entry, looked up): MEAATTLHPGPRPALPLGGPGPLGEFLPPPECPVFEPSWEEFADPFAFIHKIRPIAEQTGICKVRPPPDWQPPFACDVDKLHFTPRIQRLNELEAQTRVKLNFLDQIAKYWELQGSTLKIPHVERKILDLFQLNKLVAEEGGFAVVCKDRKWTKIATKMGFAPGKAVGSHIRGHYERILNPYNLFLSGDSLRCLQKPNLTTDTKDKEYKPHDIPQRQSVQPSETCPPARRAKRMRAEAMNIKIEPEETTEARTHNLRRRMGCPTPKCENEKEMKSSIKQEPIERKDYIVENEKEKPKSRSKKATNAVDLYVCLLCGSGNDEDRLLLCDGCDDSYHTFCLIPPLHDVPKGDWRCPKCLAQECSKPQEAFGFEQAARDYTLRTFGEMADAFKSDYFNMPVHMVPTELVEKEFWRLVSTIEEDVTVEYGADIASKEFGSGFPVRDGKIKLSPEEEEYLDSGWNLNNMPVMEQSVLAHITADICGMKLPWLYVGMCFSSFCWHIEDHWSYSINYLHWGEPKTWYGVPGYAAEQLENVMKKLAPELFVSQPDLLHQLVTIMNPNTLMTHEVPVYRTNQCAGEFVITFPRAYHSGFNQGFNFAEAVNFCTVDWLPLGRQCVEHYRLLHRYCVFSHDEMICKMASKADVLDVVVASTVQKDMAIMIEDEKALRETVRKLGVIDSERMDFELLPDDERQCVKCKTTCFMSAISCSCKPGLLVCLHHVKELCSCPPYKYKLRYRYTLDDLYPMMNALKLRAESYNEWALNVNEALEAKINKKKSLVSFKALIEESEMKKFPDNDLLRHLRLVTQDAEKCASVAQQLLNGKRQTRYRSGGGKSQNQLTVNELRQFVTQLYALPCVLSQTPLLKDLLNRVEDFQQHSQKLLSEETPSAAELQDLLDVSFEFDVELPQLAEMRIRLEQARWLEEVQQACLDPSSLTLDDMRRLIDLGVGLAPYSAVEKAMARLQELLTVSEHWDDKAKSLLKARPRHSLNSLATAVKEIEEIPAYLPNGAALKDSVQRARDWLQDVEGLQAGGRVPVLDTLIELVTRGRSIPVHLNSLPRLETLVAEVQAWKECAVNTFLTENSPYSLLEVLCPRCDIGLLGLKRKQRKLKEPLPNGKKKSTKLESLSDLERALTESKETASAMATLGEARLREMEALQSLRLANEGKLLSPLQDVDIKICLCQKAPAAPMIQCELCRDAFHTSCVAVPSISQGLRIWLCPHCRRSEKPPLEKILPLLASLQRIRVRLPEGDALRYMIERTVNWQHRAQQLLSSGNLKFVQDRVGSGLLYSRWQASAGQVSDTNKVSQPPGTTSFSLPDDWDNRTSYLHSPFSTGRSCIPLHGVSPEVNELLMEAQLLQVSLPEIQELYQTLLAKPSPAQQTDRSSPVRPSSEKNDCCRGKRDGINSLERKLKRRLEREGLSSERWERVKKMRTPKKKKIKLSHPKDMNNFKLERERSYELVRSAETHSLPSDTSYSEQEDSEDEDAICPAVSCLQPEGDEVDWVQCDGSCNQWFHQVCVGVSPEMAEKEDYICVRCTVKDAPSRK
Summary of the method: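 Compound dilutions met 200 nM (final) KDM5BΔAP for 10 min at room temperature before substrate addition. The substrate mix held 12.5 µM H3K4me3 with cofactors 25 µM α-ketoglutarate and 50 µM Fe²⁺. NADH signal gain over 30 min defined activity.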
Potency is the fitted concentration of half-maximal effect; tags give direction and shape of the fitted curve.

SMILES | Potency | activity change, negative = inhibition
C(=N\Nc1ccccn1)/c1c[nH]c2ccccc12 | inconclusive: 25.1 µM [inhibitor, partial curve, poor fit] | –
CCOCCCNC(=O)NCC12CCCC=C1NC(=O)CC2 (centres undefined) | inconclusive: 31.6 µM [inhibitor, single point] | –
COc1ccc(C(=O)CC(=O)C(=O)Nc2ccccc2OC)cc1 | inconclusive: 10 µM [inhibitor, partial curve, poor fit] | –
CN(C(=O)c1ccc(-c2nnc3ccc(NC(=O)C4CCC4)cn23)cc1)C1CCCCC1 | inconclusive: 25.1 µM [inhibitor, partial curve, poor fit] | –
Cc1ccc(C(OCC(O)CNC(CO)C(O)c2ccc([N+](=O)[O-])cc2)c2ccccc2)cc1 (centres undefined) | inconclusive: 3.55 µM [inhibitor, partial curve, poor fit] | –
CN1c2cc(C(=O)N3CCN(c4ccccc4Cl)CC3)ccc2C(=O)N2CCCCC21 (centres undefined) | inconclusive: 22.4 µM [inhibitor, partial curve, poor fit] | –
COc1ccc(S(=O)(=O)N2CCC(Cc3nncn3-c3ccccc3)CC2)cc1 | inconclusive: 25.1 µM [inhibitor, partial curve, poor fit] | –
Cc1cc(=O)n(CC(=O)NCCc2ccc(Cl)cc2)c(N2CCc3ccccc3C2)n1 | inconclusive: 15.8 µM [inhibitor, partial curve] | –
COCCNC(=O)c1cc(-c2cnn(Cc3ccccc3)c2)cc2ncn(C)c12 | active: 35.5 µM | –
Cc1cccc(OCc2ccc(-c3nc(C#N)c(NCc4cccnc4)o3)o2)c1 | inconclusive: 31.6 µM [inhibitor, partial curve, poor fit] | –
COc1ccc(C(=O)Nc2ccc(-c3noc([C@@H]4CCCN4CCCc4ccccc4)n3)cn2)cc1 | active: 25.1 µM | –
Cc1cccc(C(=O)NC(C)C(=O)OCc2cc(=O)oc3cc(O)ccc23)c1 (centres undefined) | inconclusive: 28.2 µM [inhibitor, single point] | –
Nc1nccnc1C(=O)NCc1nc2ccccc2s1 | inconclusive: 28.2 µM [inhibitor, partial curve, poor fit] | –
CC(C)c1nn2c(=O)cc(COC(=O)c3ccccc3NC(=O)COc3ccccc3)nc2s1 | inconclusive: 28.2 µM [inhibitor, partial curve, poor fit] | –
CN(CC(=O)Nc1ccccc1)C(=O)C(C)(C)C#N | – | inactive: 14.8%
CCc1ccc(NC(=O)CCCc2nnc3n(CC(C)C)c(=O)c4sccc4n23)cc1 | – | inactive: -22%
O=C(Nc1cccc2[nH]ncc12)NS(=O)(=O)c1ccccc1 | inconclusive: 35.5 µM [inhibitor, partial curve, poor fit] | –
COC[C@H]1CCCN1C(=O)C[C@@H]1O[C@H](CNC(=O)Nc2cccc(F)c2)[C@@H](O)[C@H]1O | inconclusive: 31.6 µM [inhibitor, single point] | –
CC1=C(C(=O)OC(C)(C)C)C(c2ccc(Cl)cc2)N2C(CC(=O)N3CCCC3)=CSC2=N1 (centres undefined) | – | inactive: -18.9%
CCN(CC)S(=O)(=O)c1ccc(-c2nc(C)ccc2OC)cc1 | inconclusive: 25.1 µM [inhibitor, partial curve, poor fit] | –

SMILES | Potency | activity change, negative = inhibition
Cc1[nH]cnc1CN1CC[C@H](N2CCN(C)CC2)[C@H](CCC(=O)O)C1 | inconclusive: 17.8 µM [inhibitor, partial curve, poor fit] | –
COc1cccc(C(=O)N2CCC(C(=O)N3CC[C@@](C)(O)[C@@H](O)C3)CC2)c1 | inconclusive: 25.1 µM [inhibitor, single point] | –
Cc1c(Cl)cccc1NC(=O)Cn1cc(C(=O)c2cccs2)c2ccccc21 | inconclusive: 31.6 µM [inhibitor, single point] | –
CN(CCc1ccccn1)C(=O)c1ccc(N2CC3CC(C2)[C@H]2CCCC(=O)N2C3)nc1 (some centres undefined) | inconclusive: 28.2 µM [inhibitor, partial curve, poor fit] | –
CCc1ccc(-n2c(=O)c3sc4ccccc4c3n(CC(=O)N3CCCC3)c2=O)cc1 | inconclusive: 8.91 µM [inhibitor, partial curve, poor fit] | –
Cc1ccc2[nH]c(=O)cc(C(=O)N3CCOC(CCCC(C)C)C3)c2c1 (centres undefined) | active: 28.2 µM | –
O=C(Cc1c[nH]c2ncc(-c3cccc(OC(F)(F)F)c3)cc12)NCc1cccnc1 | active: 28.2 µM | –
CC(=O)N1CCc2c(sc3c2c(=O)n(-c2ccc(C)cc2)c(=O)n3Cc2c(F)cccc2Cl)C1 | inconclusive: 35.5 µM [inhibitor, single point] | –
O=C(NCCCN1CCCC1)c1ccc(-c2ccc(N3CCCCC3)nc2)cc1 | active: 22.4 µM | –
COc1ccc(CN2CCc3c(c(=O)n4ncc(C(=O)N5CCN(c6ccc(F)cc6)CC5)c4n3C)C2)cc1 | inconclusive: 25.1 µM [inhibitor, single point] | –
COc1ccccc1CNC(=O)c1cccn1-c1nnc(N2CCCCC2)s1 | – | inconclusive: -32.9% [inhibitor]
CCCn1cnc2c1CN(S(=O)(=O)c1ccc(C#N)cc1)[C@H](C(=O)OC)C2 | inconclusive: 39.8 µM [inhibitor, partial curve, poor fit] | –
CCc1cc2c(=O)c(Oc3ccc(F)cc3)c(C(F)(F)F)oc2cc1OC(C)=O | – | inactive: 0.98%
COc1ccccc1NC(=O)c1c(C)cc(C)nc1SCC(=O)NCc1ccccc1 | – | inactive: 7.84%
N#Cc1nc(-c2ccc(Cl)cc2)oc1NCc1ccccc1Cl | inconclusive: 1.78 µM [inhibitor, partial curve, poor fit] | –
O=C(NCC1CCCO1)C1CCN(C2CCN(C(=O)CCC3CCCCC3)CC2)CC1 (centres undefined) | inconclusive: 25.1 µM [inhibitor, single point] | –
CC(=O)Nc1ccc(CN2C(=O)OC3(CCN(Cc4ccc(C(C)C)cc4)CC3)C2(C)c2ccccc2)cc1 (centres undefined) | – | inactive: -26.7%
CSc1ccc(/C=C/C(=O)Nc2cc(F)ccc2F)cc1 | inconclusive: 39.8 µM [inhibitor, single point] | –
CN1CCCCCC(O)c2cc(C(=O)N3CCc4ccccc43)ccc21 (centres undefined) | inconclusive: 15.8 µM [inhibitor, partial curve, poor fit] | –
